Measured values: PubChem BioAssay (NCI)
Several values for one entry are separate records, joined by “and”; a condition that tells them apart may be missing. Equal entries are not always repeated.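 Following 48 hours of exposure in 96-well plates, responses at five concentrations were used to interpolate endpoints linearly. GI50 marks 50% less growth. Definition used: TGI = concentration required for complete inhibition of growth.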

Each molecule was assayed on NCI-H322M lung (assay: inhibition of tumour cell growth, NCI panel, 48 h).
`CC12OOC(C)(OO1)C2CCC(=O)NCCCNc1ccnc2cc(Cl)ccc12` (stereo not drawn) gave a GI50 of over 20000 nM and a TGI of over 20000 nM.
`Cc1ccccc1[C@H]1C(C(=O)c2ccc(Cl)cc2)C2(N[C@@H]1c1ccccc1)C(=O)Nc1ccc(Cl)cc12` (stereo partly drawn) gave a GI50 of 4900 nM and a TGI of 9970 nM.
In the case of `O=C(c1cc2cc(OCCCN3CCC3)ccc2[nH]1)N1C[C@@H](CCl)c2c1cc(OCc1ccccc1)c1ccccc21`, the GI50 is reported as 360 nM and 256 nM and the TGI is reported as 1570 nM and 1030 nM.
Work on `CC(=O)Oc1ccccc1C(=O)[Se]C(=NC1CCCCC1)NC1CCCCC1` yielded a GI50 of 1700 nM and a TGI of 3170 nM.
